The supplement of paper PMC3334620
Whole data set: some 33,000 sequences, median “E-score (-0.5 to 0.5)” near -0.043, cut for the highest 2% near 0.37. The list shows a part of the results.

Each sequence was assayed against T1, Upc2 (UniProt Q12151) (assay: PBM E-score (8-mer binding enrichment) (E-score (-0.5 to 0.5)); higher = stronger / more preferred TF binding; most listed sequences are background and not binding sites). Details: protein concentration: 200 nM; construct: GST-full length.
T1 sequence: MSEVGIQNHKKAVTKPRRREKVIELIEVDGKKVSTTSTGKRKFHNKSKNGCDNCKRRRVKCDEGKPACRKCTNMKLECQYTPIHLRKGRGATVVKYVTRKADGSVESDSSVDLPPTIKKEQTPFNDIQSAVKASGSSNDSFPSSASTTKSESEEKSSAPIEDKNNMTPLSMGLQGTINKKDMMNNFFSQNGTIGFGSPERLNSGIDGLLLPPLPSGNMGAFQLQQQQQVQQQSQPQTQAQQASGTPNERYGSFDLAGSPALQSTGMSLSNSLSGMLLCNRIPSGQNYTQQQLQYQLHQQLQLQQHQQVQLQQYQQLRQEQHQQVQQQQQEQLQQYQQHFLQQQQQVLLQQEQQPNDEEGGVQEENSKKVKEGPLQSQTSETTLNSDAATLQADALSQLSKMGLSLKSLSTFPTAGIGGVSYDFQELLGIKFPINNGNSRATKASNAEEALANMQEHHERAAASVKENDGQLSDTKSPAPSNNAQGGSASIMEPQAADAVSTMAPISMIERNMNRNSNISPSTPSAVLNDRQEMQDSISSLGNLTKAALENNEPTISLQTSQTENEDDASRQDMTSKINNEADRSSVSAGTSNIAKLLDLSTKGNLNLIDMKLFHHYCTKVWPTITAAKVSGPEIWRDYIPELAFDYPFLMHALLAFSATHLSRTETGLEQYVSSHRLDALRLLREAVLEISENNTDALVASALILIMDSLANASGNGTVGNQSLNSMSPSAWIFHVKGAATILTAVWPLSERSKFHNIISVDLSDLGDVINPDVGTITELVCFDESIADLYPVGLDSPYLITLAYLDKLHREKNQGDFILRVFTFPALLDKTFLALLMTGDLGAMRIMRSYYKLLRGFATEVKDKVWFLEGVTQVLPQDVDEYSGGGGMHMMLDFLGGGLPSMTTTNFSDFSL
Summary of the method: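 Universal all-10-mer Agilent arrays, double-stranded by primer extension on fresh or once-stripped slides, were probed with about 100-200 nM GST-tagged yeast transcription factors made by PURExpress. Fluorescent anti-GST detected bound protein, and masliner normalised the scans. E-scores from the Universal PBM Analysis Suite were given to each ungapped eight-base word pooled with its reverse complement.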

Sequence	PBM E-score
GAAAGTAA	0.039
AAGTGACG	-0.0668
ACATCGGT	-0.133
AAGAGCAA	-0.137
CCCATAGA	-0.273
CGCTAAAA	0.225
GTGCGCAC	0.0494
TGGTTACA	0.0964
ATACCTTC	-0.0711
ACCAGAAG	-0.129
ACAGACTA	0.0641
GTAAATTA	0.0975
CAGGCCGC	-0.167
ACCTTCAG	-0.0717
ATTCCAAT	-0.0975
AAGGCGCG	0.0648
ATGCAATC	0.0196
ATGGACTA	-0.0617
CGTATGAA	0.405
CTTCTTTA	0.0205
CACACGAA	0.239
AAACCCGC	-0.0992
ATGCCGAG	0.154
CCGGCTCA	-0.257
AACCGAAT	0.277

Sequence	PBM E-score
ATCTGTCA	-0.0123
CTCGATTC	-0.0211
GCAAGTAA	-0.174
ATGGCTTC	-0.181
ACTGAGAC	-0.105
ATTACGCC	-0.108
AAATATCC	0.0979
ACGCCGAC	0.0662
CGGGTGGA	-0.0263
TCGGTTAA	0.356
CTGCGAGC	-0.026
CACCTTGG	-0.289
ACGTGGGC	-0.0701
GCAGGCTA	-0.224
CTGCCGGA	-0.276
ATTTCCGG	0.00823
ATCTTCAG	-0.0674
GTGTGGCA	-0.371
AAATTGGT	0.0678
CACAGGTA	0.116
CTACCTAC	-0.0272
CTGCCGGC	-0.261
GTGGAACA	0.0251
AACTACTT	-0.18
CAAGCGGG	-0.144

Sequence	PBM E-score
GGGGTCAC	-0.214
AGAAATTA	0.065
AGAGGAGA	-0.164
CAACGAAC	0.257
TCTCCCCA	-0.16
ATGCCGGA	-0.0122
GGCCGGTA	-0.0202
TAAGGGTA	-0.127
CAATAACC	0.0495
GAAACAGA	-0.0318
TACCCACA	-0.0512
TAGATTGA	0.0547
ACTAAGCC	-0.16
CCATATCG	-0.00282
ACCCTTCA	-0.00307
CCTTATAG	0.0464
GTGACAGA	0.0515
ACTGAACG	0.395
AACAGTAC	0.131
CTTGAGGC	-0.247
ATTGTACA	-0.0603
TTATGCAA	-0.00146
AAGTACGC	0.115
ACGCTGGC	0.0502
GACTGTGC	0.00477

Sequence	PBM E-score
CCCCTGCG	-0.182
CCGACCCA	-0.00267
CGCCGGCA	-0.161
CAAAGGCC	-0.206
ACGGGCCA	0.0391
CAAGGACG	-0.255
ACCTAACA	0.0599
GCTGCACA	-0.225
ACTTGAGG	-0.202
GAAACGAC	0.423
AAAAAAAC	-0.00164
ACCCCGTA	0.327
CCTTTTTC	-0.178
GTAGTTTA	0.137
GAATAGCA	-0.0573
AGACAGTG	-0.17
AGACTTTA	-0.0691
AGCACAGA	-0.109
GAAATCTA	-0.0095
ATGTCTGG	-0.00617
CCTGTCGC	0.0153
AGAATTCT	0.136
AGGGAATG	-0.237
AGATCGGA	-0.0579
CCTGATTA	-0.0975

Sequence	PBM E-score
AATTGTCC	-0.0711
ACAGTACA	0.0931
ACACAAAG	0.0503
CAAGTATG	-0.0812
TCGAGCGA	0.0406
CCGCACAC	-0.0323
CAAATCAA	-0.0805
AGCCTCCC	-0.184
ATACACTA	-0.0748
ATGTGGCG	-0.0487
GCCCTCGC	0.219
GTGTATAA	0.138
CCCGGGCC	-0.0985
CCGACTGA	0.0637
AATAGGGT	0.00758
CCGACGCC	-0.0132
CACACTCA	-0.116
ATTCGCGA	0.277
CCCCCCCG	-0.178
AAAAGCCT	-0.282
ATAGTCAT	-0.0152
GAAGTCAA	-0.00967
AGCCTTTC	-0.232
ATTCAACA	-0.0241
CCTTTAAC	0.217

Sequence	PBM E-score
AATCCTTA	-0.136
CACGCTCC	-0.339
CAGATATA	-0.0677
CGAATCCG	0.181
AAGCTCGA	0.0415
ACTGTTAC	0.119
CAGTGAAA	0.0712
ATGTCTGA	-0.112
ATGTCGTG	-0.0693
AGTTATAA	0.0366
CTAATTCA	-0.0938
CGCATGTA	0.0289
CGTACAAG	0.442
GGTTTGGA	-0.0119
CATATTAA	0.13
ACAGCCGG	-0.127
ACCAAGCA	-0.133
AGTTATGC	-0.0113
ACCGCCTA	-0.133
ACAGCACC	-0.219
CCATTTTC	-0.0456
CAACGTCG	0.192
GACGCGGA	-0.102
ATGTGCTC	0.00489
ATCCCATG	-0.326

Sequence	PBM E-score
ATACACTC	0.249
CTCAAGGC	-0.217
GTGAGGGA	-0.269
TAAGCACA	-0.032
GTCCTCAA	-0.1
AATTCTGA	-0.0388
CGGGTCCC	-0.0237
AGGAGAAC	-0.0916
CGTTGTAC	0.271
ATGGAGTA	0.0154
ATCCAGCA	-0.0733
CCGCATAC	0.197
GGTCAGCA	0.138
GCGTATAC	0.454
GTCCTCAC	-0.129
CTCGTCTA	0.261
AAGTACAC	0.0783
ATAGGCCC	-0.204
AAGCAATA	-0.025
AACGGCTA	0.197
GGCAGAAA	0.141
CGCTAGTC	-0.217
ATTCAAGA	-0.102
GACGAACA	0.0681
CAAAAGGA	-0.0306

Sequence	PBM E-score
CGCACATA	-0.0597
AGAGAGCT	-0.122
CCAGGCCG	-0.12
AGTTGGGG	-0.148
GCGGGCCC	-0.281
CCCTCTTC	-0.0556
ATTCCCAA	-0.0704
ACTGCTCA	-0.00483
GGTCCTTA	-0.0347
AGATTCCG	-0.054
GAAAACCA	-0.131
ATCGCATA	0.318
ATGGGATA	-0.102
TGACTCAA	-0.0228
ATCCAAAT	0.0703
AGTTCCGC	0.0626
ACGAGGAT	0.355
CTCCTTAC	0.112
AGCGTCCT	0.0132
GTTTTTCA	-0.0628
ACATTAAC	0.165
GGTTATAC	0.383
CACGTCTA	-0.168
CGGTGCGC	-0.0732
CACTGCTC	-0.0808

Sequence	PBM E-score
AAGACACT	-0.0556
AGGTCTGG	-0.153
ATATACCC	-0.0426
CGCGAGCG	0.0722
ATGAGAAT	-0.0735
CTATACAG	0.154
CGCACGAG	-0.0893
AGTTCTTA	0.00646
ACACTCGG	0.142
GCTGGGAC	-0.224
ATACACTG	0.112
GACATACC	-0.152
GCACCCTA	-0.143
AATCCGTA	0.241
AATCTTTC	-0.0762
GTATGAAC	0.196
AATCACTG	-0.0215
AGAAGGTG	-0.0354
AGTAGGAG	-0.332
